Drawing on paper PMC12820563, this text covers binding signal (RPM ratio (pull-down/input)) for 31 sequences.

The other results are listed elsewhere or left out. The list includes weakly bound sequences.

The target of the test is T1, MBP-FoxP3dN (UniProt Q99JB6).
T1 sequence: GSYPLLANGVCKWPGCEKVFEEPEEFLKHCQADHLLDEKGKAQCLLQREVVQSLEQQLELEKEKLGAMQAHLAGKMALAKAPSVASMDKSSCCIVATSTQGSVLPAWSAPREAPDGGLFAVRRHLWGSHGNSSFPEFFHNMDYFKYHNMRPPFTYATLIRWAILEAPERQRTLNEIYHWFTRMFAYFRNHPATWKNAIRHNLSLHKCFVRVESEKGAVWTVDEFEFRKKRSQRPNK
Briefly: PD-seq (MBP pull-down with sequencing). The settings on record: 20 mM Tris-HCl pH 7.5, 100 mM NaCl, 1.5 mM MgCl2, 0.4 uM protein, 0.1 uM dsDNA library, 30 min, room temperature, amylose pull-down; high values mean tight binding; double strand, one strand shown.
Regarding “GATGATTGTTCTCCCAGCTGATGAATTAAAATTTTCGAGTAAACAAATTTTCCTAATCTTTCTGTTCAAGCGCCATCTAC”, the binding signal (RPM ratio (pull-down/input)) came to 0.263.
Turning to “GATGATTGTTCTCCCAGCTGATGAATTAGGTCTTTCGAGTAAACAAATTTTCCTAATCTTTCTGTTCAAGCGCCATCTAC”, the binding signal (RPM ratio (pull-down/input)) is 0.452.
Turning to “GATGATTGTTCTCCCAGCTGATGAATTCGCCGGATCGAGTAAACAAATTTTCCTAATCTTTCTGTTCAAGCGCCATCTAC”, the binding signal (RPM ratio (pull-down/input)) turned out to be 0.188.
Under “GATGATTGTTCTCCCAGCTGATGAATTACCTGGGTCGAGTAAACAAATTTTCCTAATCTTTCTGTTCAAGCGCCATCTAC” stands 0.183; under “GATGATTGTTCTCCCAGCTGATGAATTGAGGCAGTCGAGTAAACAAATTTTCCTAATCTTTCTGTTCAAGCGCCATCTAC”, 0.733.
Take “GATGATTGTTCTCCCAGCTGATGAATTCTATTAGTCGAGTAAACAAATTTTCCTAATCTTTCTGTTCAAGCGCCATCTAC”: the binding signal (RPM ratio (pull-down/input)) worked out at 3.45.
As for “GATGATTGTTCTCCCAGCTGATGAATTGTTGCCATCGAGTAAACAAATTTTCCTAATCTTTCTGTTCAAGCGCCATCTAC”, the binding signal (RPM ratio (pull-down/input)) was found to be 4.23.
Under “GATGATTGTTCTCCCAGCTGATGAATTGTTCGGATCGAGTAAACAAATTTTCCTAATCTTTCTGTTCAAGCGCCATCTAC” stands 0.3; under “GATGATTGTTCTCCCAGCTGATGAATTATTTAGGTCGAGTAAACAAATTTTCCTAATCTTTCTGTTCAAGCGCCATCTAC”, 1.1.
Under “GATGATTGTTCTCCCAGCTGATGAATTTCCAAACTCGAGTAAACAAATTTTCCTAATCTTTCTGTTCAAGCGCCATCTAC” stands 0.212; under “GATGATTGTTCTCCCAGCTGATGAATTCGTGTACTCGAGTAAACAAATTTTCCTAATCTTTCTGTTCAAGCGCCATCTAC”, 3.23.
Under “GATGATTGTTCTCCCAGCTGATGAATTGGGAGCCTCGAGTAAACAAATTTTCCTAATCTTTCTGTTCAAGCGCCATCTAC” stands 0.446; under “GATGATTGTTCTCCCAGCTGATGAATTGGACAGCTCGAGTAAACAAATTTTCCTAATCTTTCTGTTCAAGCGCCATCTAC”, 0.259.
As for “GATGATTGTTCTCCCAGCTGATGAATTAAGCTCATCGAGTAAACAAATTTTCCTAATCTTTCTGTTCAAGCGCCATCTAC”, the binding signal (RPM ratio (pull-down/input)) amounted to 0.419.
Under “GATGATTGTTCTCCCAGCTGATGAATTATGTCGTTCGAGTAAACAAATTTTCCTAATCTTTCTGTTCAAGCGCCATCTAC” stands 2.7; under “GATGATTGTTCTCCCAGCTGATGAATTTTACACGTCGAGTAAACAAATTTTCCTAATCTTTCTGTTCAAGCGCCATCTAC”, 0.344; under “GATGATTGTTCTCCCAGCTGATGAATTTCTTTGCTCGAGTAAACAAATTTTCCTAATCTTTCTGTTCAAGCGCCATCTAC”, 1.5.
Under “GATGATTGTTCTCCCAGCTGATGAATTAGACGACTCGAGTAAACAAATTTTCCTAATCTTTCTGTTCAAGCGCCATCTAC” stands 0.3; under “GATGATTGTTCTCCCAGCTGATGAATTGTTTAGTTCGAGTAAACAAATTTTCCTAATCTTTCTGTTCAAGCGCCATCTAC”, 3.84; under “GATGATTGTTCTCCCAGCTGATGAATTCTGCAACTCGAGTAAACAAATTTTCCTAATCTTTCTGTTCAAGCGCCATCTAC”, 5.96.
In the case of “GATGATTGTTCTCCCAGCTGATGAATTGGCCTAGTCGAGTAAACAAATTTTCCTAATCTTTCTGTTCAAGCGCCATCTAC”, the binding signal (RPM ratio (pull-down/input)) turned out to be 0.259.
Under “GATGATTGTTCTCCCAGCTGATGAATTCTCTCGTTCGAGTAAACAAATTTTCCTAATCTTTCTGTTCAAGCGCCATCTAC” stands 0.288; under “GATGATTGTTCTCCCAGCTGATGAATTTTTACTGTCGAGTAAACAAATTTTCCTAATCTTTCTGTTCAAGCGCCATCTAC”, 0.24.
Under “GATGATTGTTCTCCCAGCTGATGAATTTAGGTAGTCGAGTAAACAAATTTTCCTAATCTTTCTGTTCAAGCGCCATCTAC” stands 0.605.
As to “GATGATTGTTCTCCCAGCTGATGAATTCGCTGAGTCGAGTAAACAAATTTTCCTAATCTTTCTGTTCAAGCGCCATCTAC”, the binding signal (RPM ratio (pull-down/input)) was determined as 0.267.
Under “GATGATTGTTCTCCCAGCTGATGAATTCACGACTTCGAGTAAACAAATTTTCCTAATCTTTCTGTTCAAGCGCCATCTAC” stands 0.437; under “GATGATTGTTCTCCCAGCTGATGAATTTGTTCGGTCGAGTAAACAAATTTTCCTAATCTTTCTGTTCAAGCGCCATCTAC”, 2.81; under “GATGATTGTTCTCCCAGCTGATGAATTAATACCGTCGAGTAAACAAATTTTCCTAATCTTTCTGTTCAAGCGCCATCTAC”, 0.429.
Turning to “GATGATTGTTCTCCCAGCTGATGAATTTGTACCCTCGAGTAAACAAATTTTCCTAATCTTTCTGTTCAAGCGCCATCTAC”, the binding signal (RPM ratio (pull-down/input)) was found to be 2.74.
Under “GATGATTGTTCTCCCAGCTGATGAATTCTTGTGTTCGAGTAAACAAATTTTCCTAATCTTTCTGTTCAAGCGCCATCTAC” stands 0.821; under “GATGATTGTTCTCCCAGCTGATGAATTGTTACTATCGAGTAAACAAATTTTCCTAATCTTTCTGTTCAAGCGCCATCTAC”, 1.1.
